{"sequences": {"note": "Amino acid sequences for entries named in this document (tags omitted).", "UniProt P67809": "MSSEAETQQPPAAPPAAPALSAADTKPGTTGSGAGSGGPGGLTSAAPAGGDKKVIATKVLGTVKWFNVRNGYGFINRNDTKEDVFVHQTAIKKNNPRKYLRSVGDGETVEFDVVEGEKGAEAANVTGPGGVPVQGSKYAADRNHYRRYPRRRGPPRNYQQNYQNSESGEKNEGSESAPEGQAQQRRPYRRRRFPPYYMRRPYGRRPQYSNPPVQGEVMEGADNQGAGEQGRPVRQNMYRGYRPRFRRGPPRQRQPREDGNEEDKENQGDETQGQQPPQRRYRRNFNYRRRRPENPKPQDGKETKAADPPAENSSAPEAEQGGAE"}, "source": "paper PMC12396302", "molecules": {"B1": {"name": "Menin (protein, UniProt O00255 1-610)", "chain": "MGLKAAQKTLFPLRSIDDVVRLFAAELGREEPDLVLLSLVLGFVEHFLAVNRVIPTNVPELTFQPSPAPDPPGGLTYFPVADLSIIAALYARFTAQIRGAVDLSLYPREGGVSSRELVKKVSDVIWNSLSRSYFKDRAHIQSLFSFITGTKLDSSGVAFAVVGACQALGLRDVHLALSEDHAWVVFGPNGEQTAEVTWHGKGNEDRRGQTVNAGVAERSWLYLKGSYMRCDRKMEVAFMVCAINPSIDLHTDSLELLQLQQKLLWLLYDLGHLERYPMALGNLADLEELEPTPGRPDPLTLYHKGIASAKTYYRDEHIYPYMYLAGYHCRNRNVREALQAWADTATVIQDYNYCREDEEIYKEFFEVANDVIPNLLKEAASLLEAGEERPGEQSQGTQSQGSALQDPECFAHLLRFYDGICKWEEGSPTPVLHVGWATFLVQSLGRFEGQVRQKVRIVSREAEAAEAEEPWGEEAREGRRRGPRRESKPEEPPPPKKPALDKGLGTGQGAVSGPPRKPPGTVAGTARGPEGGSTAQVPAPTASPPPEGPVLTFQSEKMKGMKELLVATKINSSAIKLQLTAQSQVQMKKQKVSTPSDYTLSFLKRQRKGL"}}, "key": {"GST-Menin": {"biological_target": "T1, GST-Menin (UniProt O00255)", "T1 sequence": "B1 chain", "test": "pull-down; GST pull-down in vitro; purified GST-Menin or GST alone with HIS-YBX1; blots probed with anti-HIS and anti-GST; both purified"}, "FLAG-tagged Menin": {"biological_target": "T2, FLAG-tagged Menin (UniProt O00255)", "T2 sequence": "B1 chain", "test": "co-IP; FLAG immunoprecipitation of nuclear extracts of PL45 and BxPC-3 cells; LaminB1 as input control"}, "[1]": {"biological_target": "T3, Menin (human (endogenous in PL45 and Bx-PC3)) (UniProt O00255)", "T3 sequence": "B1 chain", "test": "co-IP; PL45 and Bx-PC3 cell lysates; beads pre-bound with 5 μg of Menin or YBX1 antibody, overnight at 4°C; IgG as negative control"}, "[2]": {"biological_target": "T4, GST-tagged Menin N-terminal fragment (1-210 aa) (UniProt O00255)", "T4 sequence": "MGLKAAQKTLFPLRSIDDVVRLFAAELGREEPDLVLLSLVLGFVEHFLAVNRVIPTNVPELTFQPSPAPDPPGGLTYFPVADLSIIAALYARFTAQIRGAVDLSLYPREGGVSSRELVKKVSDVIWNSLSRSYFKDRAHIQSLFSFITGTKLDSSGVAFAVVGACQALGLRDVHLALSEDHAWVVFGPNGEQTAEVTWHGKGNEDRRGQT", "test": "pull-down; GST pull-down; GST-tagged Menin truncation mutants with HA-YBX1; blots probed with anti-GST and anti-HA"}, "[3]": {"biological_target": "Y-box binding protein 1 (YBX1) (human (endogenous in PL45 and Bx-PC3)) (UniProt P67809)", "test": "co-IP; PL45 and Bx-PC3 cell lysates; beads pre-bound with 5 μg of Menin or YBX1 antibody, overnight at 4°C; IgG as negative control"}}, "note": "No constants are given. Whether binding was seen depends on the method and setting. For some assays here: Binding seen in cells or lysates may run through a third protein. Some binding calls cover weakened binding; strength is not graded here. For some assays here: Where a sequence is shown, tags or fusion partners need not be part of it.", "data": [{"molecule": "HIS-YBX1 (from UniProt P67809 1-324)", "values": [{"measurement": "binding", "setting": "GST-Menin", "value": "binds"}]}, {"molecule": "Y-box binding protein 1 (YBX1) (from UniProt P67809 1-324)", "values": [{"measurement": "binding", "setting": "FLAG-tagged Menin", "value": "binds"}, {"measurement": "binding", "setting": "[1]", "value": "binds"}]}, {"molecule": "HA-YBX1 (from UniProt P67809 1-324)", "values": [{"measurement": "binding", "setting": "[2]", "value": "no binding"}]}, {"molecule": "B1", "values": [{"measurement": "binding", "setting": "[3]", "value": "binds"}]}]}
